Results: PubChem BioAssay AID1468 (National Center for Advancing Translational Sciences (NCATS), 2008)
The whole screen tested about 280,000 compounds, of which about 1,100 (0.39%) were called active. This list was built around the results that the source calls inconclusive (neither active nor inactive); the mix of calls is not that of the screen. Calls follow the shape of the dose curve; as a rule, active = well fitted inhibition curve with a large enough effect; inconclusive = small, poorly fitted or top-dose-only effect, or effect the other way; inactive = flat fitted curve, though single readings scatter. No potency is given beside an inconclusive call; the fits are too rough.
% is scaled to controls: 0 for no effect and ±100 for the full control effect; potency is read from the fitted curve at half-maximal effect; tags tell the direction and shape of the fitted curve.
Also: nearly all actives have a fitted effect of over 55% in size.

The molecules below were run against Microtubule-associated protein tau (Homo sapiens) (UniProt P10636) (assay: qHTS for Inhibitors of Tau Fibril Formation, Fluorescence Polarization). Settings: K18 P301L tau heparin fibrillization, Alexa594 FP, 6 h; series mostly up to 57.7 µM; activity, negative = inhibition: at the top concentration.
Chain of UniProt P10636 (P10636 whole entry, looked up): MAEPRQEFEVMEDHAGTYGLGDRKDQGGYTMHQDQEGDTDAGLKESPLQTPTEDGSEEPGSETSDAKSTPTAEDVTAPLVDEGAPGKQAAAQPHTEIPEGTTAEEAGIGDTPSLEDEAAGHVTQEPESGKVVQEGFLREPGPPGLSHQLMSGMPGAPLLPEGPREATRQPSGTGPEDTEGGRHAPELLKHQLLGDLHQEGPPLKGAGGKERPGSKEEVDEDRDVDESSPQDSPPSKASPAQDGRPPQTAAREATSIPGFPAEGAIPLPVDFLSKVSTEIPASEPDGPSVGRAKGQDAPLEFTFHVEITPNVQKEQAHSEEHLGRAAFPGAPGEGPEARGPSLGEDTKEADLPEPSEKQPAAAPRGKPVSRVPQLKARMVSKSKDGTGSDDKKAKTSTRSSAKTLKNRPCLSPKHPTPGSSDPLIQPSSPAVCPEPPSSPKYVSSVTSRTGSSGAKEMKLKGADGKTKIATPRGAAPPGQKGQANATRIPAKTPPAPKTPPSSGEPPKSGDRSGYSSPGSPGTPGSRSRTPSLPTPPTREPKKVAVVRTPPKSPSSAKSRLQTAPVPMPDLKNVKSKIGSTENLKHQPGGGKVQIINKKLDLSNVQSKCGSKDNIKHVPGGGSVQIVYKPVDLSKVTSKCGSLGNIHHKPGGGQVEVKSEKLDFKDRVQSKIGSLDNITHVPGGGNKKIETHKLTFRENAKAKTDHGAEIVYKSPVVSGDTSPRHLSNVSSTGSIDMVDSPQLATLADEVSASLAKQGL
How it was run: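 K18 P301L tau (15 uM unlabeled/0.24 uM Alexa 594-labeled, final) + compound + heparin 20 uM final; 100 mM NaOAc pH 7; 6 hr 37 C; ThT 30 uM final added, 1 hr RT; FP ex 555/em 632 nm.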
With `COc1ccc(NS(=O)(=O)c2ccc(N3CCCC3)c(NC(=S)Nc3cccc(S(=O)(=O)N(C)C)c3)c2)cc1` the Potency was inconclusive [inhibitor, single point].
In the case of `COc1cccc(NCc2ccc([N+](=O)[O-])s2)c1`, the Potency is reported as inconclusive [activator, partial curve].
In the case of `O=C(Nc1cccc(F)c1)NC1(C(=O)N2CCOCC2)CCCCC1`, the “activity, negative = inhibition” value is reported as inactive: 2.52%.
`c1ccc(CN2CCN(c3nc(-c4ccccc4)nc(-n4ccnc4)n3)CC2)cc1` was tested, and the Potency was inconclusive [inhibitor, single point].
With `CC(C)c1ccc(NC(=O)C(c2ccccc2)N2CCN(C(=O)c3ccco3)CC2)cc1` (stereo not drawn) the “activity, negative = inhibition” value was inactive: 8.27%.
`Cc1cc(C)c2c(c1)c(C)cc1nnc(SCC(=O)c3ccccc3)n12` was tested, and the “activity, negative = inhibition” value was inactive: 0.0068%.
`Cc1ccc(S(=O)(=O)N2CCC(C(=O)N3CCC[C@H]3C(=O)NC3CCS(=O)(=O)C3)CC2)cc1` (stereo partly drawn) was tested, and the Potency was inconclusive [inhibitor, full curve, poor fit].
With `COc1cc(NC(=O)COC(=O)CSc2ccc3ccccc3c2)c(C)cc1[N+](=O)[O-]` the Potency was inconclusive [inhibitor, partial curve].
With `CC(=O)C(Sc1nn(C)c(=S)s1)C(=O)Nc1ccccc1` (stereo not drawn) the Potency was inconclusive [inhibitor, partial curve, poor fit].
In the case of `O=C(CSc1nnc(CCc2ccccc2)n1-c1ccc(Cl)cc1)c1ccccc1`, the “activity, negative = inhibition” value is reported as inactive: -6.27%.
With `COc1cc(CCC(=O)Nc2ccc(Br)c(C(F)(F)F)c2)cc(OC)c1OC` the Potency was inconclusive [inhibitor, partial curve].
For `COc1cc(SC)ccc1C(=O)Nc1ccccc1C#N`, the Potency was inconclusive [inhibitor, single point].
For `Cc1ccc(-c2cn(-c3cccc(Cl)c3)c(S(=O)(=O)CC(=O)Nc3cccc(C)c3)n2)cc1`, the Potency was inconclusive [inhibitor, partial curve].
`Cc1cccc(Nc2nc(N)nc(CSC(=S)N3CCOCC3)n2)c1` was tested, and the Potency was inconclusive [inhibitor, partial curve].
In the case of `CN(C)CCCn1c(N)c(C#N)c2nc(C#N)c(C#N)nc21`, the Potency is reported as inconclusive [inhibitor, partial curve].
For `CC(C)(C)c1cc(=O)n(-c2ccccc2)[nH]1`, the Potency was inconclusive [inhibitor, single point].
For `CC(C)(C)NS(=O)(=O)c1ccc(CCC(=O)NCc2ccc3c(c2)OCO3)cc1`, the “activity, negative = inhibition” value was inactive: -0.126%.
For `Cc1cc(=O)[nH]c(CN2CCC(c3ccccc3)CC2)n1`, the “activity, negative = inhibition” value was inactive: 1.45%.
In the case of `O=C(C1CCCN(S(=O)(=O)c2cccc3nsnc23)C1)N1CC=C(c2ccccc2)CC1` (stereo not drawn), the Potency is reported as inconclusive [inhibitor, single point].
With `CCOC(=O)N/N=C1/C[C@@H](O)[C@@H](O)[C@@H]2[C@@H]3C(=O)N(Cc4ccc5c(c4)OCO5)C(=O)[C@H]3CC[C@@H]12` the activity, negative = inhibition was inactive: -0.566% [at 11.6 µM].
In the case of `CC(C)=CCc1c(O)ccc2c1OC(c1ccc(O)c(O)c1)CC2=O` (stereo not drawn), the Potency is reported as inconclusive [activator, partial curve].
With `COc1ccc(Cn2c(CCC(=O)Nc3ccc(CC#N)cc3)nc3cccnc32)cc1` the Potency was inconclusive [inhibitor, single point].
For `COc1cnc(-c2ccccc2)nc1Sc1ccccc1`, the Potency was inconclusive [inhibitor, partial curve, poor fit].
For `COc1ccc(C(=O)Nc2nc3c(s2)CCCC3)cc1Cl`, the Potency was inconclusive [inhibitor, single point].
`O=C(NC(=S)N1CCCCC1)c1cccnc1` was tested, and the “activity, negative = inhibition” value was inactive: -8.3%.
`O=C(CNCCc1ccccc1)N1CCc2ccccc2C1` was tested, and the “activity, negative = inhibition” value was inactive: 1.06%.
In the case of `Cc1cccc(N2CCN(C(=O)c3ccc4c(c3)N(Cc3cccc(Cl)c3)C(=O)c3ccccc3S4=O)CC2C)c1` (stereo not drawn), the “activity, negative = inhibition” value is reported as inactive: -2.98%.
`Cc1[nH]c2ccccc2c1SCC(=O)N1CCC(C)CC1` was tested, and the Potency was inconclusive [activator, single point].
In the case of `Cc1ccc(NC(=O)CCC(=O)N2Cc3ccccc3Oc3ncccc32)cc1F`, the “activity, negative = inhibition” value is reported as inactive: -4.12%.
In the case of `COc1ccccc1Cn1c(=S)[nH]c2cc(C(=O)NCc3cccnc3)ccc2c1=O`, the Potency is reported as inconclusive [inhibitor, partial curve].
In the case of `CC(C)c1onc(C(=O)N2CCOCC2)c1[N+](=O)[O-]`, the Potency is reported as inconclusive [inhibitor, single point].
With `CCOC(=O)CCCSc1nc2sc3c(c2c(=O)[nH]1)CCC3` the “activity, negative = inhibition” value was inactive: 6.76%.
With `N#Cc1c(-c2c(Cl)cccc2Cl)noc1/C=C/Nc1ccc(C(=O)O)cc1` the “activity, negative = inhibition” value was inactive: 6.96%.
With `O=C(CNc1cccc(C(F)(F)F)c1)N/N=C/c1cn(-c2ccccc2)nc1-c1ccccc1` the Potency was active: 8.91 µM.
In the case of `CC(=O)N1CCc2c(sc3c2c(=O)n(CCc2ccccc2)c(=O)n3CC(=O)Nc2ccc(C)c(F)c2)C1`, the Potency is reported as inconclusive [inhibitor, partial curve].
For `CCOCc1nnc(NC(=O)CSc2ccc(C)cc2)s1`, the Potency was inconclusive [inhibitor, single point].
`Cc1ccc2onc(CNC(=O)Nc3cc(F)ccc3F)c2c1` was tested, and the Potency was inconclusive [inhibitor, single point].
In the case of `Cc1ccn2c(Nc3ccc4c(c3)OCCO4)c(-c3cccs3)nc2c1`, the Potency is reported as inconclusive [activator, partial curve, poor fit].
With `CCc1ccc(C2CC(=O)c3c([nH]c(C(=O)OCCOc4ccccc4)c3C)C2)cc1` (stereo not drawn) the “activity, negative = inhibition” value was inactive: -6.49%.
For `Cc1cc2c(c(=O)o1)[C@H](O)[C@H]1O[C@@H]1C2=O`, the activity, negative = inhibition was inactive: 10.4% [at 11.6 µM].
In the case of `COc1ccccc1N1CCN(C(=O)CSc2n[nH]c(-c3ccccc3Cl)n2)CC1`, the Potency is reported as inconclusive [inhibitor, partial curve].
With `Cc1cc(C)c(S(=O)(=O)/N=C2/C=C(SCC(=O)O)C(=O)c3ccccc32)cc1C` the Potency was active: 10 µM.
In the case of `O=C(COC(=O)c1cc(-c2ccc(Cl)s2)nc2ccccc12)NCc1ccco1`, the Potency is reported as inconclusive [inhibitor, partial curve].
